# Measured values published in the supplement of paper PMC8728848.
# The list shows a part of the results.
# Assays:
# Experiment in all cases: glycan array binding signal (z-score within array); higher = stronger binding
# Conditions in all cases: glycan notation: IUPAC condensed, linker removed; mutation: E41A
# [1] = biological target: GlcNAc(b1-3)Gal(b1-3)GalNAc
# Summary of the method: (§1)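 Columns mapping to the same glycan were averaged after glycan names were converted to IUPAC-condensed notation. The data come from 3228 arrays in the Consortium for Functional Glycomics database, limited to those with an available protein sequence. Binding is reported as a within-array Z-score averaged across arrays of one protein sequence and across linkers.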
# GlcNAc(b1-3)Gal(b1-4)Glc = biological target: GlcNAc(b1-3)Gal(b1-4)Glc
# Summary of the method: as §1
# [2] = biological target: GlcNAc(b1-3)Gal(b1-4)GlcNAc
# Summary of the method: as §1
# [3] = biological target: GlcNAc(b1-3)Gal(b1-4)GlcNAc(b1-2)Man(a1-3)[GlcNAc(b1-3)Gal(b1-4)GlcNAc(b1-2)Man(a1-6)]Man(b1-4)GlcNAc(b1-4)GlcNAc
# Summary of the method: as §1
# [4] = biological target: GlcNAc(b1-3)Gal(b1-4)GlcNAc(b1-2)Man(a1-3)[GlcNAc(b1-3)Gal(b1-4)GlcNAc(b1-2)Man(a1-6)]Man(b1-4)GlcNAc(b1-4)[Fuc(a1-6)]GlcNAc
# Summary of the method: as §1
# [5] = biological target: GlcNAc(b1-3)Gal(b1-4)GlcNAc(b1-2)[GlcNAc(b1-3)Gal(b1-4)GlcNAc(b1-6)]Man(a1-6)[GlcNAc(b1-3)Gal(b1-4)GlcNAc(b1-2)Man(a1-3)]Man(b1-4)GlcNAc(b1-4)GlcNAc
# Summary of the method: as §1
# [6] = biological target: GlcNAc(b1-3)Gal(b1-4)GlcNAc(b1-3)Gal(b1-4)GlcNAc
# Summary of the method: as §1
# [7] = biological target: GlcNAc(b1-3)Gal(b1-4)GlcNAc(b1-3)Gal(b1-4)GlcNAc(b1-2)Man(a1-3)[GlcNAc(b1-3)Gal(b1-4)GlcNAc(b1-3)Gal(b1-4)GlcNAc(b1-2)Man(a1-6)]Man(b1-4)GlcNAc(b1-4)GlcNAc
# Summary of the method: as §1
# [8] = biological target: GlcNAc(b1-3)Gal(b1-4)GlcNAc(b1-3)Gal(b1-4)GlcNAc(b1-2)Man(a1-3)[GlcNAc(b1-3)Gal(b1-4)GlcNAc(b1-3)Gal(b1-4)GlcNAc(b1-2)Man(a1-6)]Man(b1-4)GlcNAc(b1-4)[Fuc(a1-6)]GlcNAc
# Summary of the method: as §1
# [9] = biological target: GlcNAc(b1-3)Gal(b1-4)GlcNAc(b1-3)Gal(b1-4)GlcNAc(b1-2)[GlcNAc(b1-3)Gal(b1-4)GlcNAc(b1-3)Gal(b1-4)GlcNAc(b1-6)]Man(a1-6)[GlcNAc(b1-3)Gal(b1-4)GlcNAc(b1-3)Gal(b1-4)GlcNAc(b1-2)Man(a1-3)]Man(b1-4)GlcNAc(b1-4)[Fuc(a1-6)]GlcNAc
# Summary of the method: as §1
# [10] = biological target: GlcNAc(b1-3)Gal(b1-4)GlcNAc(b1-3)Gal(b1-4)GlcNAc(b1-3)Gal(b1-4)GlcNAc(b1-2)Man(a1-3)[GlcNAc(b1-3)Gal(b1-4)GlcNAc(b1-3)Gal(b1-4)GlcNAc(b1-3)Gal(b1-4)GlcNAc(b1-2)Man(a1-6)]Man(b1-4)GlcNAc(b1-4)GlcNAc
# Summary of the method: as §1
# [11] = biological target: GlcNAc(b1-3)Gal(b1-4)GlcNAc(b1-3)Gal(b1-4)GlcNAc(b1-3)Gal(b1-4)GlcNAc(b1-2)Man(a1-3)[GlcNAc(b1-3)Gal(b1-4)GlcNAc(b1-3)Gal(b1-4)GlcNAc(b1-3)Gal(b1-4)GlcNAc(b1-2)Man(a1-6)]Man(b1-4)GlcNAc(b1-4)[Fuc(a1-6)]GlcNAc
# Summary of the method: as §1
# [12] = biological target: GlcNAc(b1-3)Gal(b1-4)GlcNAc(b1-3)Gal(b1-4)GlcNAc(b1-3)Gal(b1-4)GlcNAc(b1-2)[GlcNAc(b1-3)Gal(b1-4)GlcNAc(b1-3)Gal(b1-4)GlcNAc(b1-3)Gal(b1-4)GlcNAc(b1-6)]Man(a1-6)[GlcNAc(b1-3)Gal(b1-4)GlcNAc(b1-3)Gal(b1-4)GlcNAc(b1-3)Gal(b1-4)GlcNAc(b1-2)Man(a1-3)]Man(b1-4)GlcNAc(b1-4)[Fuc(a1-6)]GlcNAc
# Summary of the method: as §1
# [13] = biological target: GlcNAc(b1-3)Gal(b1-4)GlcNAc(b1-3)Gal(b1-4)GlcNAc(b1-3)Gal(b1-4)GlcNAc(b1-3)Gal(b1-4)GlcNAc(b1-2)Man(a1-3)[GlcNAc(b1-3)Gal(b1-4)GlcNAc(b1-3)Gal(b1-4)GlcNAc(b1-3)Gal(b1-4)GlcNAc(b1-3)Gal(b1-4)GlcNAc(b1-2)Man(a1-6)]Man(b1-4)GlcNAc(b1-4)GlcNAc
# Summary of the method: as §1
# [14] = biological target: GlcNAc(b1-3)Gal(b1-4)GlcNAc(b1-3)Gal(b1-4)GlcNAc(b1-3)Gal(b1-4)GlcNAc(b1-3)Gal(b1-4)GlcNAc(b1-2)Man(a1-3)[GlcNAc(b1-3)Gal(b1-4)GlcNAc(b1-3)Gal(b1-4)GlcNAc(b1-3)Gal(b1-4)GlcNAc(b1-3)Gal(b1-4)GlcNAc(b1-2)Man(a1-6)]Man(b1-4)GlcNAc(b1-4)[Fuc(a1-6)]GlcNAc
# Summary of the method: as §1
# [15] = biological target: GlcNAc(b1-3)Gal(b1-4)GlcNAc(b1-3)Gal(b1-4)GlcNAc(b1-3)Gal(b1-4)GlcNAc(b1-3)Gal(b1-4)GlcNAc(b1-2)[GlcNAc(b1-3)Gal(b1-4)GlcNAc(b1-3)Gal(b1-4)GlcNAc(b1-3)Gal(b1-4)GlcNAc(b1-3)Gal(b1-4)GlcNAc(b1-6)]Man(a1-6)[GlcNAc(b1-3)Gal(b1-4)GlcNAc(b1-3)Gal(b1-4)GlcNAc(b1-3)Gal(b1-4)GlcNAc(b1-3)Gal(b1-4)GlcNAc(b1-2)Man(a1-3)]Man(b1-4)GlcNAc(b1-4)[Fuc(a1-6)]GlcNAc
# Summary of the method: as §1
# [16] = biological target: GlcNAc(b1-3)Gal(b1-4)GlcNAc(b1-3)Gal(b1-4)GlcNAc(b1-3)GalNAc
# Summary of the method: as §1
# [17] = biological target: GlcNAc(b1-3)Gal(b1-4)GlcNAc(b1-3)GalNAc
# Summary of the method: as §1
# [18] = biological target: GlcNAc(b1-3)Gal(b1-4)GlcNAc(b1-3)[GlcNAc(b1-3)Gal(b1-4)GlcNAc(b1-3)]GalNAc
# Summary of the method: as §1
# [19] = biological target: GlcNAc(b1-3)Gal(b1-4)GlcNAc(b1-6)[Gal(b1-3)]GalNAc
# Summary of the method: as §1
# [20] = biological target: GlcNAc(b1-3)Gal(b1-4)GlcNAc(b1-6)[GlcNAc(b1-3)Gal(b1-3)]GalNAc
# Summary of the method: as §1
# [21] = biological target: GlcNAc(b1-3)Gal(b1-4)GlcNAc(b1-6)[GlcNAc(b1-3)]Gal(b1-4)GlcNAc
# Summary of the method: as §1
# GlcNAc(b1-3)GalNAc = biological target: GlcNAc(b1-3)GalNAc
# Summary of the method: as §1
# GlcNAc(b1-3)Man = biological target: GlcNAc(b1-3)Man
# Summary of the method: as §1
# [22] = biological target: GlcNAc(b1-3)[GlcNAc(b1-4)][GlcNAc(b1-6)]GlcNAc
# Summary of the method: as §1
# [23] = biological target: GlcNAc(b1-3)[GlcNAc(b1-6)]Gal(b1-4)GlcNAc
# Summary of the method: as §1
# [24] = biological target: GlcNAc(b1-3)[GlcNAc(b1-6)]GalNAc
# Summary of the method: as §1
# [25] = biological target: GlcNAc(b1-4)Gal(b1-4)GlcNAc
# Summary of the method: as §1
# GlcNAc(b1-4)GlcNAc = biological target: GlcNAc(b1-4)GlcNAc
# Summary of the method: as §1
# [26] = biological target: GlcNAc(b1-4)GlcNAc(b1-4)GlcNAc
# Summary of the method: as §1
# [27] = biological target: GlcNAc(b1-4)GlcNAc(b1-4)GlcNAc(b1-4)GlcNAc(b1-4)GlcNAc
# Summary of the method: as §1
# [28] = biological target: GlcNAc(b1-4)GlcNAc(b1-4)GlcNAc(b1-4)GlcNAc(b1-4)GlcNAc(b1-4)GlcNAc
# Summary of the method: as §1
# [29] = biological target: GlcNAc(b1-4)[GlcNAc(b1-6)]GalNAc
# Summary of the method: as §1
# [30] = biological target: GlcNAc(b1-6)Gal(b1-4)GlcNAc
# Summary of the method: as §1
# GlcNAc(b1-6)GalNAc = biological target: GlcNAc(b1-6)GalNAc
# Summary of the method: as §1
# [31] = biological target: GlcNAc6S(b1-3)Gal(b1-4)GlcNAc
# Summary of the method: as §1
# Kdn(a2-3)Gal(b1-3)GalNAc = biological target: Kdn(a2-3)Gal(b1-3)GalNAc
# Summary of the method: as §1
# Kdn(a2-3)Gal(b1-3)GlcNAc = biological target: Kdn(a2-3)Gal(b1-3)GlcNAc
# Summary of the method: as §1
# Kdn(a2-3)Gal(b1-4)Glc = biological target: Kdn(a2-3)Gal(b1-4)Glc
# Summary of the method: as §1
# Kdn(a2-3)Gal(b1-4)GlcNAc = biological target: Kdn(a2-3)Gal(b1-4)GlcNAc
# Summary of the method: as §1
# [32] = biological target: Kdn(a2-3)Gal(b1-4)[Fuc(a1-3)]GlcNAc
# Summary of the method: as §1
# Kdn(a2-6)Gal(b1-4)GlcNAc = biological target: Kdn(a2-6)Gal(b1-4)GlcNAc
# Summary of the method: as §1
# [33] = biological target: Man(a1-2)Man(a1-2)Man(a1-3)Man
# Summary of the method: as §1
# [34] = biological target: Man(a1-2)Man(a1-2)Man(a1-6)[Man(a1-3)]Man
# Summary of the method: as §1
# Man(a1-2)Man(a1-3)Man = biological target: Man(a1-2)Man(a1-3)Man
# Summary of the method: as §1
binder,measurement,setting,value
CVN-E41G (protein) MHHHHHHENLYFQSGNFSQACYNSAIQGSVLTSTCIRTNGGYNTSSIDLNSVIANVDGSLKWQGSNFIETCRNTQLAGSSELAAECKTRAQQFVSTKINLDDHIAAIDGTLKYE,glycan array binding signal (z-score),[1],-0.219
same,glycan array binding signal (z-score),GlcNAc(b1-3)Gal(b1-4)Glc,-0.225
same,glycan array binding signal (z-score),[2],-0.211
same,glycan array binding signal (z-score),[3],-0.242
same,glycan array binding signal (z-score),[4],-0.035
same,glycan array binding signal (z-score),[5],-0.064
same,glycan array binding signal (z-score),[6],-0.213
same,glycan array binding signal (z-score),[7],-0.16
same,glycan array binding signal (z-score),[8],-0.135
same,glycan array binding signal (z-score),[9],-0.141
same,glycan array binding signal (z-score),[10],-0.194
same,glycan array binding signal (z-score),[11],-0.087
same,glycan array binding signal (z-score),[12],-0.165
same,glycan array binding signal (z-score),[13],-0.204
same,glycan array binding signal (z-score),[14],-0.088
same,glycan array binding signal (z-score),[15],-0.135
same,glycan array binding signal (z-score),[16],-0.168
same,glycan array binding signal (z-score),[17],-0.17
same,glycan array binding signal (z-score),[18],0.323
same,glycan array binding signal (z-score),[19],-0.13
same,glycan array binding signal (z-score),[20],-0.104
same,glycan array binding signal (z-score),[21],-0.193
same,glycan array binding signal (z-score),GlcNAc(b1-3)GalNAc,-0.228
same,glycan array binding signal (z-score),GlcNAc(b1-3)Man,-0.223
same,glycan array binding signal (z-score),[22],-0.222
same,glycan array binding signal (z-score),[23],-0.239
same,glycan array binding signal (z-score),[24],-0.223
same,glycan array binding signal (z-score),[25],-0.206
same,glycan array binding signal (z-score),GlcNAc(b1-4)GlcNAc,-0.083
same,glycan array binding signal (z-score),[26],-0.201
same,glycan array binding signal (z-score),[27],-0.15
same,glycan array binding signal (z-score),[28],-0.226
same,glycan array binding signal (z-score),[29],-0.253
same,glycan array binding signal (z-score),[30],-0.048
same,glycan array binding signal (z-score),GlcNAc(b1-6)GalNAc,-0.213
same,glycan array binding signal (z-score),[31],-0.122
same,glycan array binding signal (z-score),Kdn(a2-3)Gal(b1-3)GalNAc,-0.181
same,glycan array binding signal (z-score),Kdn(a2-3)Gal(b1-3)GlcNAc,-0.212
same,glycan array binding signal (z-score),Kdn(a2-3)Gal(b1-4)Glc,-0.177
same,glycan array binding signal (z-score),Kdn(a2-3)Gal(b1-4)GlcNAc,-0.198
same,glycan array binding signal (z-score),[32],-0.225
same,glycan array binding signal (z-score),Kdn(a2-6)Gal(b1-4)GlcNAc,-0.193
same,glycan array binding signal (z-score),[33],8.7
same,glycan array binding signal (z-score),[34],8.39
same,glycan array binding signal (z-score),Man(a1-2)Man(a1-3)Man,7.22
